According to PubChem BioAssay AID1347165 (National Center for Advancing Translational Sciences (NCATS), 2019):
In all, about 220,000 compounds went through this assay and about 5,700 (2.6%) were called active. Inconclusive results, whose numbers are uncertain, are shown with a selection of clear calls. The call rests on the fitted dose curve; in most records, active means well fitted inhibition curve with a large enough effect; inconclusive means small, poorly fitted or top-dose-only effect; inactive means no such curve, though single readings can be large or run the other way. Potencies of inconclusive entries are doubtful fits and often do not repeat.

What follows are compounds tested against Lysine-specific demethylase 5B (Homo sapiens) (UniProt Q9UGL1) (assay: Primary screen for KDM5B Histone Demethylases FDH-coupled qHTS). Conditions: FDH-coupled NADH fluorescence (FDH is formaldehyde dehydrogenase); activity change, negative = inhibition: at 57.7 µM (top of the series) unless noted.
Chain of UniProt Q9UGL1 (Q9UGL1 whole entry, looked up): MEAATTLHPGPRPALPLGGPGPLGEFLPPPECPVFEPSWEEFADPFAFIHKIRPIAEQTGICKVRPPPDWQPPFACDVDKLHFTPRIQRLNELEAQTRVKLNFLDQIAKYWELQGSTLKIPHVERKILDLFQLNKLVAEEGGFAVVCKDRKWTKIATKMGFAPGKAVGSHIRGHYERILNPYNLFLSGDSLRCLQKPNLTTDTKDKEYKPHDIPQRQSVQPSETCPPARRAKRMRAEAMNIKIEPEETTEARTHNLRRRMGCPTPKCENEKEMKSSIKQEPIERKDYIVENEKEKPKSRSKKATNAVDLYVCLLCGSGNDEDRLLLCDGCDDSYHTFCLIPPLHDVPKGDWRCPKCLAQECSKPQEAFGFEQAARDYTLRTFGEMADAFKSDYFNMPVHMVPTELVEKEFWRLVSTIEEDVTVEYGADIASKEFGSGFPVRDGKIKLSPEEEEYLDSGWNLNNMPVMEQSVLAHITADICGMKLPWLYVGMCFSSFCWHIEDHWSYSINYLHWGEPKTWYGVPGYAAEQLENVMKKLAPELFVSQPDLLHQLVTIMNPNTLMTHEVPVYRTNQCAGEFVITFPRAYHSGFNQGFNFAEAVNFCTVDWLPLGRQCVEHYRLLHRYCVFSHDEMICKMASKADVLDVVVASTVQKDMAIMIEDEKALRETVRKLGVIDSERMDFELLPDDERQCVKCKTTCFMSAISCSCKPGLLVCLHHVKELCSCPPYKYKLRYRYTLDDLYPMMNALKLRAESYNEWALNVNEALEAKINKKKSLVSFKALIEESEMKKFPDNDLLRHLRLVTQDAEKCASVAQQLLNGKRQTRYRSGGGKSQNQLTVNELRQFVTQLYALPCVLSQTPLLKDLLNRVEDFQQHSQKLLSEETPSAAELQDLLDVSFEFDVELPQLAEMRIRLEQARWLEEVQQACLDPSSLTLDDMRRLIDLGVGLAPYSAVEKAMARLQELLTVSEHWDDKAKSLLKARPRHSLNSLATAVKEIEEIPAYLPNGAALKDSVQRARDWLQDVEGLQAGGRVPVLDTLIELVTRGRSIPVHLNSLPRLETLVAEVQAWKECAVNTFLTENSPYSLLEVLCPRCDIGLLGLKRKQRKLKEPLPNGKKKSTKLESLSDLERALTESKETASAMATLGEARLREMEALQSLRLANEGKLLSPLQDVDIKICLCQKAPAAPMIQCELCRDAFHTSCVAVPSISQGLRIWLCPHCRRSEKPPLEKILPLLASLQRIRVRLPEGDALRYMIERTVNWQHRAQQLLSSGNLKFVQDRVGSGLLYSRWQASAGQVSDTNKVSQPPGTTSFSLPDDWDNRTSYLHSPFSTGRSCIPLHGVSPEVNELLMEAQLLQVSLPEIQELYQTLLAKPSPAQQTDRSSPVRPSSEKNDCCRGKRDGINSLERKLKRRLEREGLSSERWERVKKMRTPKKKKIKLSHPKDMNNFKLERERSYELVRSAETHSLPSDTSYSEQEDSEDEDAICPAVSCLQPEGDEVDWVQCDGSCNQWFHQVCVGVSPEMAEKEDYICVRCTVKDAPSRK
Procedure, shortened: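 qHTS format, multiple compound concentrations. Buffer 50 mM HEPES pH 7.5/0.01% Tween-20; 200 nM KDM5BΔAP final; 10 min compound preincubation; substrate-mix levels 12.5 µM peptide, 25 µM α-KG, 0.25 mM NAD⁺; 30 min RT; ΔRFU.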
Further: nearly all actives have a fitted effect of over 70% in size.
Potency means the concentration at half of the fitted maximal effect; tags describe the fitted curve by direction and shape.
Wherever activity change, negative = inhibition is given: 0% is about no effect.

Row | Structure (SMILES) | Potency | activity change, negative = inhibition
1 | CCOc1ccc(OCC)c(Nc2ccc3cc(S(=O)(=O)N4CCCC4)ccc3n2)c1 | inconclusive: 17.8 µM [inhibitor, partial curve, poor fit] | –
2 | CC(C)(C)C(=O)Nc1nnc(Cc2ccccc2F)s1 | – | inactive: -7.47%
3 | O=C(c1ccc(CC2CCNCC2)cc1)N1CCCC1 | – | inactive: 16.3%
4 | O=C(Nc1ccc(S(=O)(=O)N2CCCCC2c2cccnc2)cc1)c1ccc(Br)cc1 (centres undefined) | inconclusive: 35.5 µM [inhibitor, partial curve, poor fit] | –
5 | Cc1cccc(COc2ccc3c(C)cc(=O)oc3c2)c1 | inconclusive: 20 µM [inhibitor, partial curve, poor fit] | –
6 | Cc1cccc(C)c1NC(=O)CSc1ncnc2ccccc12 | – | inactive: 18.5%
7 | COc1ccc(OC)c(C(O)Cn2ccn3nc(-c4ccc(C(C)C)cc4)cc3c2=O)c1 (centres undefined) | inconclusive: 39.8 µM [inhibitor, single point] | –
8 | COc1cccc(CCC(=O)N2CCC(OCC3CC3)C2)c1 (centres undefined) | – | inactive: -18.3%
9 | Cc1cccc(NC(=O)c2c(C)cc(C)nc2SCC(=O)c2ccccc2)c1 | – | inactive: -18%
10 | O=c1c2nc(-c3ccc(O)c(F)c3)ccc2ncn1-c1ccc(F)cc1F | – | inactive: -2.34% [at 86.2 µM]
11 | Cn1cccc1CN1CC(Oc2ccc(F)cc2F)C1 | inconclusive: 44.7 µM [inhibitor, partial curve] | –
12 | COc1ccc(C(=O)N2CCC(N3CC4CC(C3)[C@H]3CCCC(=O)N3C4)CC2)cn1 (some centres undefined) | inconclusive: 15.8 µM [inhibitor, partial curve, poor fit] | –
13 | CN(C)C[C@@H]1CN(Cc2ccccc2)C[C@H]1NC(=O)c1ccncn1 | inconclusive: 12.6 µM [inhibitor, partial curve] | –
14 | N#CC(C#N)=NNc1ccc([N+](=O)[O-])cc1 | inconclusive: 20 µM [inhibitor, partial curve, poor fit] | –
15 | CCCn1c(C)cc(C(=O)CSc2nnc(COc3ccccc3Cl)n2C)c1C | – | inactive: 5.76%
16 | O=C1COCCN1c1cc(-c2ccccc2Oc2ccccc2)cn2cncc12 | inconclusive: 39.8 µM [inhibitor, partial curve, poor fit] | –
17 | CCC1=C(C(=O)OC)C(c2cccc(OC)c2)N2C(CC(=O)N3CCC(C)CC3)=CSC2=N1 (centres undefined) | – | inactive: -23.3%
18 | CCOc1ccc(NC(=O)C(=O)c2cc(C)n(-c3cc(C)cc(C)c3)c2C)cc1 | inconclusive: 15.8 µM [inhibitor, partial curve, poor fit] | –
19 | Cn1ccc2c(C(=O)NCCc3cnc[nH]3)nc(-c3ccc([S+](C)(=O)[O-])cc3)cc21 | – | inactive: -5410% [at 86.2 µM]
20 | COc1ccc(Nc2nc(N)nc(N)c2S(=O)(=O)c2ccccc2)cc1 | inconclusive: 28.2 µM [inhibitor, single point] | –
21 | Cc1c(Cl)cccc1NC(=O)c1cc2n(n1)CC(c1ccc(Cl)cc1)OC2 (centres undefined) | active: 25.1 µM | –
22 | COCC1CN(C2CCC2)CC12CCN(Cc1cnn(C(C)C)c1)CC2 (centres undefined) | inconclusive: 17.8 µM [inhibitor, partial curve, poor fit] | –
23 | CCOC(=O)C1(Cc2ccc(F)cc2)CCCN(C(=O)c2cc3nc(C)cc(C)n3n2)C1 (centres undefined) | active: 31.6 µM | –

Row | Structure (SMILES) | Potency | activity change, negative = inhibition
24 | O=C1NC2(CCN(C(=O)c3cccnc3)C2)N=C1c1cccnc1 (centres undefined) | inconclusive: 31.6 µM [inhibitor, single point] | –
25 | Cc1nn(-c2ccc3nncn3n2)c2c1C(c1ccccc1)CC(=O)N2 (centres undefined) | – | inactive: 6.15%
26 | CCSc1nc(NCCN(C)C)c2c3c(sc2n1)COC(C)(CC)C3 (centres undefined) | – | inactive: -29.1%
27 | FC(F)(F)c1ccc(=S)[nH]c1 | inconclusive: 39.8 µM [inhibitor, single point] | –
28 | COc1ccc(NC(=O)c2c(NCc3sccc3C)sc3c2CCCC3)c(OC)c1 | inconclusive: 39.8 µM [inhibitor, single point] | –
29 | Cc1cc(C)cc(N2CCC(NC(=O)c3ccc4[nH]ccc4c3)C2=O)c1 (centres undefined) | inconclusive: 28.2 µM [inhibitor, single point] | –
30 | COc1cccc(-c2cc(C(=O)O)c3ccc(C)c(C)c3n2)c1 | inconclusive: 25.1 µM [inhibitor, single point] | –
31 | CCCn1c(=O)sc2cc(NC(=O)c3ccc(OC)c(Br)c3)ccc21 | inconclusive: 35.5 µM [inhibitor, partial curve, poor fit] | –
32 | Cc1cc(C)cc(-n2ncc3c(=O)n(CC(O)COc4ccc(F)cc4)cnc32)c1 (centres undefined) | – | inactive: -7.63%
33 | CN1CC(=O)N(C2CCCNC2)Cc2c1ncnc2N1CCN(CC2CCCCC2)CC1 (centres undefined) | inconclusive: 35.5 µM [inhibitor, partial curve] | –
34 | COCc1ccc2c(c1)c(OC(C)(C)C(=O)NCc1ccncc1)nn2Cc1cccnc1 | – | inactive: -20.6%
35 | CCOC(=O)Nc1cccc(N2CCn3c(nc4cc(Cl)ccc43)C2)c1 | – | inactive: -9.69%
36 | CCOc1ccc(NC(=O)CN(C)C(=O)C2CC(=O)N(Cc3ccco3)C2)cc1OCC (centres undefined) | inconclusive: 39.8 µM [inhibitor, single point] | –
37 | CN(C)c1nc2c(c(=O)[nH]1)CCN(Cc1ccccc1)CC2 | inconclusive: 14.1 µM [inhibitor, partial curve] | –
38 | Cc1ccc(C)c(Sc2ccc(NC(=O)C3CCC(C(C)(C)C)CC3)cc2)c1 (centres undefined) | – | inactive: -4.11%
39 | COCCNC(=O)C[C@@H]1C[C@H]2O[C@H](CN(C)C)[C@@H](O)[C@H]2O1 | – | inactive: -9.97% [at 86.2 µM]
40 | CC(C)c1ccc(NC(=O)c2ccc3c(c2)CCN3S(=O)(=O)c2ccccc2)cc1 | inconclusive: 5.01 µM [inhibitor, partial curve, poor fit] | –
41 | Cc1[nH]nc2c1C(c1ccccc1F)C(C#N)=C(N)O2 (centres undefined) | inconclusive: 14.1 µM [inhibitor, partial curve, poor fit] | –
42 | Cc1nc2ccn(Cc3ccccc3)c(=O)c2cc1C(=O)N1CCN(c2ccccc2F)CC1 | inconclusive: 22.4 µM [inhibitor, partial curve, poor fit] | –
43 | Cc1cccc(C2C=C(c3ccc(C)c(C)c3)Nc3nnnn32)c1 (centres undefined) | inconclusive: 39.8 µM [inhibitor, single point] | –
44 | CCN1c2cc(C(=O)Nc3cccc(OC)c3)ccc2C(=O)N2CCCC21 (centres undefined) | inconclusive: 20 µM [inhibitor, partial curve, poor fit] | –
45 | Cc1noc(C)c1CC(=O)N1[C@@H]2CC[C@H]1CC(NC(=O)c1ccc(F)cc1)C2 (some centres undefined) | – | inactive: -3.01%
46 | COc1cc(OC)cc(-c2cc3nc(C)c(CCC(=O)NCc4ccccc4)c(C)n3n2)c1 | inconclusive: 25.1 µM [inhibitor, partial curve, poor fit] | –

Row | Structure (SMILES) | Potency | activity change, negative = inhibition
47 | COc1ccccc1-n1cc(-c2ccnc(N3CCCN(C(C)=O)CC3)n2)cn1 | active: 31.6 µM | –
48 | Cc1nc(-c2ccc(F)cc2)n(CC(=O)Nc2ccc(F)c(Cl)c2)c(=O)c1CCO | – | inactive: -17.1%
49 | COc1ccccc1N1CCN(C(=O)c2cn(CC(C)C)c(=O)c3c2c2ccccc2n3C)CC1 | inconclusive: 28.2 µM [inhibitor, partial curve, poor fit] | –
50 | O=C(Nc1cccc(F)c1)N1CCCC1c1nc(C2CCOCC2)no1 (centres undefined) | inconclusive: 31.6 µM [inhibitor, single point] | –
51 | Cc1cc(C)n(C(=O)c2ccc(C)c(S(=O)(=O)N3CCCCCC3)c2)n1 | – | inactive: 11.9%
52 | COc1ccc(CNC(=O)Cn2c(-c3ccc(Cl)cc3)nc(C)c(CCO)c2=O)cc1 | – | inactive: 14%
53 | COc1ccc(-c2ccnc(N[C@H]3CO[C@H]4[C@@H]3OC[C@H]4OC(=O)Nc3ccc(C(C)(C)C)cc3)n2)cc1 | active: 25.1 µM | –
54 | Cc1ccc(-c2cc(=O)c3cc(C)ccc3o2)cc1 | – | inactive: -3.44%
55 | O=C(CSCc1cnn(-c2ccccc2)c1-n1cccc1)NCc1ccc(Cl)cc1 | inconclusive: 14.1 µM [inhibitor, partial curve, poor fit] | –
56 | O=C(Nc1cccc(-n2cccn2)c1)C1CCCN1S(=O)(=O)c1cccs1 (centres undefined) | – | inactive: 10.7%
57 | COc1ccc(NC(=O)O/N=C/c2ccc(Br)cc2)cc1 | – | inactive: 4.76%
58 | O=C(Nc1ccc(Br)cc1F)Nc1c(NC2CCCC2)c2ccccc2oc1=O | – | inactive: -17.9%
59 | COC(=O)[C@@H]1C[C@H](NC(=O)c2cc(OC)nc(OC)n2)CN1C | inconclusive: 15.8 µM [inhibitor, partial curve, poor fit] | –
60 | COc1ccccc1-c1cc(C(=O)N2CCN(c3ncccn3)CC2)c2cnn(C)c2n1 | inconclusive: 56.2 µM [inhibitor, partial curve, poor fit] | –
61 | CCN(CC)CCOCCOC(=O)C(CC)(CC)c1ccccc1 | inconclusive: 7.08 µM [inhibitor, full curve, poor fit] | –
62 | CC(=O)NC1(C)CCCN(Cc2cc(-c3cccc(N(C)C)c3)cs2)C1 (centres undefined) | inconclusive: 50.1 µM [inhibitor, partial curve, poor fit] | –
63 | Cc1ncoc1C(=O)NCC1Cn2cccc2CN1Cc1ccccc1 (centres undefined) | active: 28.2 µM | –
64 | COc1cccc(-c2nc(NCc3cccnc3)ncc2C(=O)O)c1 | inconclusive: 35.5 µM [inhibitor, partial curve, poor fit] | –
65 | Cc1ccc(CN(C)C(=O)Cc2c[nH]c3ccccc23)o1 | – | inactive: -27.9%
66 | O=c1cc(N2CCOCC2)oc2c(-c3ccncc3)nccc12 | active: 35.5 µM | –
67 | O=C(NC[C@H]1O[C@@H](CO)[C@@H](O)[C@H]1N1CCN(c2cccc(C(F)(F)F)c2)CC1)c1ccc(C(F)(F)F)cc1 | inconclusive: 11.2 µM [inhibitor, partial curve] | –
68 | CC(=O)N1CCN(c2nc(C)c3c(c2C#N)CCCC3)CC1 | inconclusive: 22.4 µM [inhibitor, partial curve, poor fit] | –
69 | COc1ccc(Br)cc1/C=C(/C#N)C(=O)C(C)(C)C | – | inactive: 13%
